Assay [1] deals with T1, Smc3^QQ-PK (S. cerevisiae) (UniProt P47037).
T1 sequence: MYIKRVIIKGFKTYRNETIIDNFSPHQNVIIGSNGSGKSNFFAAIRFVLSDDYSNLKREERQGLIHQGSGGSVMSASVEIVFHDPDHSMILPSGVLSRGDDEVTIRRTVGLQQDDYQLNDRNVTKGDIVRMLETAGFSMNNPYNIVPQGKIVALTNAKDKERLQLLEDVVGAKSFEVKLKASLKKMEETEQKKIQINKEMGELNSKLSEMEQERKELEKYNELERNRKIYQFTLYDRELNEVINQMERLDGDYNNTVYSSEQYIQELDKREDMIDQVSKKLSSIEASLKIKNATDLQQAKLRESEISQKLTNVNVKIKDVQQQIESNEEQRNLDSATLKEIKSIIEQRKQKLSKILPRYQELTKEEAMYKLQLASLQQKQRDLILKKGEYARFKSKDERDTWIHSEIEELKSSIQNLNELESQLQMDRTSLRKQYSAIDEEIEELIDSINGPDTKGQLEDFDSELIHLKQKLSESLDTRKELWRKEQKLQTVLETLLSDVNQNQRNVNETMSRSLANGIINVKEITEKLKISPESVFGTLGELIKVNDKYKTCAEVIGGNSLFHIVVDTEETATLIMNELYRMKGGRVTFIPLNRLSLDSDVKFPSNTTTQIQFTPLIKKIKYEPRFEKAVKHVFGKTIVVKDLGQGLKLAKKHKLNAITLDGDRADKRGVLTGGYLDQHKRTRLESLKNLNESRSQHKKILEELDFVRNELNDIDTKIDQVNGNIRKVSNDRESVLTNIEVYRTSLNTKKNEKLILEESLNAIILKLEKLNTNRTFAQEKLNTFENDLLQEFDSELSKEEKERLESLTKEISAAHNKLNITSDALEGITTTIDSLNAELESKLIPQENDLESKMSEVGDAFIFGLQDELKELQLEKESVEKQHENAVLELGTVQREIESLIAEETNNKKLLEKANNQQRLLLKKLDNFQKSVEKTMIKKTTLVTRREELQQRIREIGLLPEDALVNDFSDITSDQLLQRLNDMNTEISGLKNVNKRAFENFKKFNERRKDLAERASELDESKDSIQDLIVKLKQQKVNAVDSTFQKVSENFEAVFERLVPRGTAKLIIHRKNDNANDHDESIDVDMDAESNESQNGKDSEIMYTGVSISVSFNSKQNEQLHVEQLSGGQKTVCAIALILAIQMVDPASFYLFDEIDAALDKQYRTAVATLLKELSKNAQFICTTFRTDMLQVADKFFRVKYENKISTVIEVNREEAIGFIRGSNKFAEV
Put plainly: co-IP; Smc3-PK or Smc3^QQ-PK immunoprecipitated with anti-PK from whole-cell extracts of BMOE-treated late G1 arrested cells; Smc1 (anti-MYC) and Scc2 (anti-FLAG) detected.

Assay [2] deals with T2, Smc1 E1102C (S. cerevisiae) (UniProt P32908).
T2 sequence: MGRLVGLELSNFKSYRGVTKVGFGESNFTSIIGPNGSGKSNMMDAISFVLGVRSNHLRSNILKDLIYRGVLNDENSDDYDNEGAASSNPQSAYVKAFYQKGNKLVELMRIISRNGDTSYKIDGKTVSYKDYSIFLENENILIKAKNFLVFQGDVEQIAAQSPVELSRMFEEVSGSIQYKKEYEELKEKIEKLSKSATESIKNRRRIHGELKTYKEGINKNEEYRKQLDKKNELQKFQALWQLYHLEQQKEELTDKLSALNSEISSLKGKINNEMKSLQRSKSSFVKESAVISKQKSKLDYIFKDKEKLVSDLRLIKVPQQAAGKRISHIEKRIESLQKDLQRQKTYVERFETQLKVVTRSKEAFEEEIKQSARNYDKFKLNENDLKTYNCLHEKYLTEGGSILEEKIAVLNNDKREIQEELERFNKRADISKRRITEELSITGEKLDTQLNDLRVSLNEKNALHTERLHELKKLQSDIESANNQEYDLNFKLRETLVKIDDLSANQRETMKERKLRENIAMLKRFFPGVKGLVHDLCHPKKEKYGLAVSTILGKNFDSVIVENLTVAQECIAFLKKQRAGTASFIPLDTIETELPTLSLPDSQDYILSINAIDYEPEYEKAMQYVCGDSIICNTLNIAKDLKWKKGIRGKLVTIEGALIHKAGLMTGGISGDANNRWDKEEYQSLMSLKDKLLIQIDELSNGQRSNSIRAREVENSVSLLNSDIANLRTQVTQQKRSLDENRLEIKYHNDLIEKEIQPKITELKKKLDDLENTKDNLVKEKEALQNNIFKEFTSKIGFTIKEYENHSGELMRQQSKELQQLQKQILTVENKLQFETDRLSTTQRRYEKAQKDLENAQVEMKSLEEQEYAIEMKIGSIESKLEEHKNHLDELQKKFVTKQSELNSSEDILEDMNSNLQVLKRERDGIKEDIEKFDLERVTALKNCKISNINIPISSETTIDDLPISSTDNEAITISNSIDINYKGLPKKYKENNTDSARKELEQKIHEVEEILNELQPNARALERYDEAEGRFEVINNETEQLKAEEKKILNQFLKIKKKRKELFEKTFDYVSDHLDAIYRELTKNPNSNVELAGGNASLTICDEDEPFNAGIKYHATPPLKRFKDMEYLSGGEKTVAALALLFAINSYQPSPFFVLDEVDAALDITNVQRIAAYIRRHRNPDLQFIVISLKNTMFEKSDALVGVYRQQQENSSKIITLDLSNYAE
The assay is described as follows: cross-linking; in vivo BMOE cross-link of cysteine pairs in exponentially grown yeast cells (on ice, 6 min); Scc1-PK immunoprecipitated, western blot.

Changes are numbered by the printed parent chain. Names may count otherwise. Results are given in words; binding and its absence hold for the method and conditions named. Binding seen in cells or lysates may run through a third protein. Some entries that bind do so weakly or less than the wild type.

B1: Scc2 T1281C (protein, UniProt Q04002 1-1493)
chain: MSYPGKDKNIPGRIIEALEDLPLSYLVPKDGLAALVNAPMRVSLPFDKTIFTSADDGRDVNINVLGTANSTTSSIKNEAEKERLVFKRPSNFTSSANSVDYVPTNFLEGLSPLAQSVLSTHKGLNDSINIEKKSEIVSRPEAKHKLESVTSNAGNLSFNDNSSNKKTKTSTGVTMTQANLAEQYLNDLKNILDIVGFDQNSAEIGNIEYWLQLPNKKFVLTTNCLTKLQMTIKNITDNPQLSNSIEITWLLRLLDVMVCNIKFSKSSLKMGLDDSMLRYIALLSTIVLFNIFLLGKNDSNLHRESYIMEPVNFLSDLIESLKILTIEYGSLKIEFDTFQEALELLPKYIRNGPFLDDNVTAKLVYIFSDLLMNNDIEATTNIQFQSFWDNVKRISSDILVSLFGSFDQQRGFIIEELLSHIEKLPTKRIQKKLRKVGNQNIYITDFTFTLMSMLENINCYSFCNQMKDIAPENIDLLKNEYKKQEEFLFNIVEHINDTILERFFKNPSALRYVIDNFVQDLLLLISSPQWPVTEKILSSLLKRLLSVYSPSMQVSANIETICLQLIGNIGSTIFDIKCSTRDHEDNNLIKMINYPETLPHFFKSFEECIAYNETIKCRRSATRFLWNLRLGTILILEEYTKDAKEQIITVDNELKKILEQIKDGGLGPELENREADFSTIKLDYFSILHAFELLNLYDPYLKLILSLLAKDKIKLRSTAIKCLSMLASKDKVILSNPMVKETIHRRLNDSSASVKDAILDLVSINSSYFEFYQQINNNYNDDSIMVRKHVLRINEKMYDETNDIVTKVYVIARILMKIEDEEDNIIDMARLILLNRWILKVHEVLDQPEKLKEISSSVLLVMSRVAIMNEKCSQLFDLFLNFYLLNKEAHSKEAYDKITHVLTILTDFLVQKIVELNSDDTNEKNSIVDKQNFLNLLAKFADSTVSFLTKDHITALYPYMVSDEKSDFHYYILQVFRCTFEKLANFKQKFLYDLETTLLSRLPKMNVREIDEAMPLIWSVATHRHDTARVAKACSSCLSHLHPYINKANNEEAAIVVDGKLQRLIYLSTGFARFCFPKPSNDKIAFLQEGETLYEHITKCLLVLSKDKITHVIRRVAVKNLTKLCGNHPKLFNSRHVLHLLDKEFQSDQLDIKLVILESLYDLFLLEERKSVRNTGVNSTLSSNSILKKKLLKTNRVEFANDGVCSALATRFLDNILQLCLLRDLKNSLVAIRLLKLILKFGYTNPSHSIPTVIALFASTSQYIRHVAYELLEDLFEKYECLVFSSLSRGVTKAIHYSIHTDEKYYYKHDHFLSLLEKLCGTGKKNGPKFFKVLKRIMQSYLDDITDLTSTNSSVQKSIFVLCTNISNITFVSQYDLVSLLKTIDLTTDRLKEVIMDEIGDNVSSLSVSEEKLSGIILIQLSLQDLGTYLLHLYGLRDDVLLLDIVEESELKNKQLPAKKPDISKFSAQLENIEQYSSNGKLLTYFRKHVKDT
As for B1, the binding entry in assay [1] and in assay [2] was “binds” throughout.

B2: Scc2 T1175C (natural protein, S. cerevisiae, UniProt Q04002 1-1493, looked up)
chain: B1 chain with T1175C, C1281T
notes: Scc2, S. cerevisiae; source: S. cerevisiae W303, in vivo, whole-cell extract
Regarding B2, the binding entry in assay [2] was “no binding”.

These data come from paper PMC10516938, “Conformational dynamics of cohesin/Scc2 loading complex are regulated by Smc3 acetylation and ATP binding” (Nature Communications, 2023).
